Results reported in PubChem BioAssay AID662 (National Center for Advancing Translational Sciences (NCATS), 2007).
About 1,800 (2.5%) of roughly 71,000 compounds were called active. The shares of active, inactive and inconclusive entries below differ from those in the screen. Calls follow the shape of the dose curve; as a rule, active = well fitted activation curve with a large enough effect in the signal ratio, with a control signal flat (not every such curve was filed as active); inconclusive = small, poorly fitted or top-dose-only effect, or effect the other way, or a change in a side signal; inactive = flat fitted curve, though single readings scatter; the % refers to the signal ratio. A potency beside an inconclusive call is a rough fit, not a confirmed value.

Assay: Cell signaling CRE-BLA (Fsk stim); as to activity change, negative = inhibition: % of control where 0% means no effect
Settings: CHO CRE-bla reporter (cAMP response element driving beta-lactamase), forskolin EC10, beta-lactamase ratio; activity change, negative = inhibition: at 38.2 µM (top of the series) unless noted
Procedure, shortened: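 CHO CRE-bla cells, overnight plating in Opti-MEM with 0.5% dialyzed FBS; cpd titration + EC10 NKH 477, 3 h 37 °C; CCF4 2 h RT; ex 405/em 460 vs 530 ratio → %Activity, AC50.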
Potency is read from the fitted curve at half-maximal effect; tags tell the direction and shape of the fitted curve.

| Compound | activity change, negative = inhibition | Potency |
| --- | --- | --- |
| CC1CN(C(=O)N2c3ccccc3Sc3ccccc32)C(C)CC1=O (configuration not stated) | inactive: -0.834% |  |
| CN1CCc2c(sc3c2c(=O)n(-c2ccccc2)c2nnc(SCc4ccccc4F)n32)C1 | inactive: 1.73% |  |
| COc1ccc(C(=O)N2CCC3(CC2)CN(c2ccccc2)C3)cc1 | inactive: -16.8% |  |
| COCC1C2CC[C@H]3C(OCc4ccc(F)cc4C(F)(F)F)OC[C@]4(C)[C@H]3C2=C(CN4C(=O)OC(C)(C)C)[C@H](C)C1COC (some centres not stated) | inconclusive: 12.5% |  |
| O=C(OCc1ccccc1)C1CCCN1C(=O)c1cccs1 (configuration not stated) | inconclusive: -4.03% |  |
| CS(=O)(=O)c1nc(-c2cccs2)cc(C(F)(F)F)n1 | inconclusive: -6.55% |  |
| Cc1ccc(C)c(-c2nc3cc(N)ccc3o2)c1 | inconclusive: 14.5% |  |
| NC(=O)c1c(NC(=O)CSc2nnc(Cc3ccccc3)n2Cc2ccco2)sc2c1CCC2 | inactive: -25.3% |  |
| O=C(Nc1cccs1)Nc1ccccc1Cl | inconclusive: -12.5% |  |
| O=C(COC(=O)c1ccccn1)Nc1ncc(C(F)(F)F)cc1Cl | inconclusive: -1.97% |  |
| O=C(c1ccccc1)c1nnc(-c2ccncc2)o1 | inconclusive: 4.17% |  |
| COc1ccccc1OCC(O)Cn1nc(C)cc1C (configuration not stated) | inconclusive: 14.4% |  |
| COc1ccc2oc(-c3ccccc3)c(C(N)=O)c2c1 | inactive: -3.23% |  |
| Fc1ccc([C@H]2CCNC[C@H]2COc2ccc3c(c2)OCO3)cc1 | inactive: -7.65% |  |
| N=c1c2c(-c3ccccc3)c(-c3ccccc3)n(Cc3ccco3)c2ncn1Cc1ccco1 | inconclusive: 20.1% [cytotoxic] |  |
| CCn1c(=O)c(-c2ccccc2)c(O)c2ccccc21 | inconclusive: -29% |  |
| COCC(=O)Nc1ccc(Nc2ccccc2)cc1 | inconclusive: -9% |  |
| Cc1ccc(-n2ncc(C#N)c2/N=C/N2CCN(C)CC2)cc1 | inactive: 0.861% |  |
| COc1cc(Cl)c(C)cc1NC(=O)CSc1nnc(-c2cccnc2)n1Cc1ccco1 | inactive: -6.01% |  |
| COCC(=O)N1CCC2(CCCN(c3ccccn3)C2)CC1 | inactive: -9.05% |  |
| O=C(O)C1C2CCC(C2)C1C(=O)NCc1ccccn1 (configuration not stated) | inconclusive: -2.63% |  |
| Cc1ccccc1Cn1cnc2c(cnn2C(C)(C)C)c1=O |  | active: 12.6 µM |

| Compound | activity change, negative = inhibition | Potency |
| --- | --- | --- |
| COc1ccc(C2C3=C(CC(c4ccco4)CC3=O)Nc3ccccc3N2C(C)=O)cc1 (configuration not stated) | inactive: 0.638% |  |
| COc1ccccc1-c1nnc2n1N=C(C(C)(C)C)CS2 |  | inconclusive: 31.6 µM [rising, single point] |
| CCCC[C@@H]1C[C@H]1C(NS(=O)(=O)c1cccc2cccnc12)c1ccc(-c2ccccc2)cc1 (some centres not stated) | inactive: -1.92% |  |
| Cn1nnnc1SCC(=O)Nc1c(Cl)cccc1Cl | inconclusive: 5.11% |  |
| Cc1ccc(S(=O)(=O)C2(C(=O)Nc3ccc(F)cc3)CC2)cc1 | inconclusive: -2.04% |  |
| Cc1ccc2oc(=O)c3cnn(CC(=O)N(CCCN4CCOCC4)Cc4ccco4)c3c2c1 | inactive: -4.24% |  |
| Cc1cc(C)n(Cc2ccc(C(=O)O)o2)n1 | inconclusive: 7.54% |  |
| CCOC(=O)C1=C(C)NC(C)=C(C(=O)OC)[C@H]1c1cccc(Cl)c1Cl | inconclusive: 2.15% |  |
| O=C(NCc1ccco1)c1cc(-c2ccccn2)nc2ccccc12 | inconclusive: -19.3% |  |
| Clc1ccc(CSc2ncnc3c2ncn3[C@@H]2CCCCO2)cc1 | inactive: 21.2% [at 7.6 µM] |  |
| CCC(c1nnnn1Cc1ccco1)N(CCc1ccccc1)Cc1cc2ccc(OC)cc2[nH]c1=O (configuration not stated) |  | inconclusive: 12.6 µM [rising, single point] |
| CCCCSc1nnc([C@H](CC(C)C)NC(=O)OC(C)(C)C)o1 | inconclusive: 17.2% |  |
| Cc1csc2ncc(C(=O)Nc3ccccc3Cl)c(=O)n12 | inactive: -4.6% |  |
| CSc1nnc2n(-c3ccccc3)c(=O)c3c4c(sc3n12)CCC4 |  | active: 2.51 µM |
| CCC/C=C(\CCC)C(NC(=O)c1ccccc1)c1ccccc1 (configuration not stated) | inactive: 8.86% |  |
| Cc1cc(C)c(C#N)c(N2CCN(Cc3ccc4c(c3)OCO4)CC2)n1 |  | inconclusive: 10 µM [rising, partial curve] |
| Cn1c(N)c(C(=O)COC(=O)Cn2cc(C(F)(F)F)ccc2=O)c(=O)n(C)c1=O | inactive: -0.958% |  |
| Cc1cccc(N2CCN(C(=O)C3CCCN(S(=O)(=O)c4cccc5cccnc45)C3)CC2)c1C (configuration not stated) | inconclusive: -17.6% |  |
| Cc1cc(OCC(=O)N2CCOCC2)ccc1NC(=O)C1CCCCC1 | inconclusive: 8.57% |  |
| Fc1ccccc1CSc1nnc(-c2cnccn2)n1Cc1ccco1 | inconclusive: 26.4% |  |
| CCOC(=O)C1=C(C)NC(=O)NC1c1ccc(OC)c(Cl)c1 (configuration not stated) |  | inconclusive: 25.1 µM [rising, single point] |
| O=C(CN(Cc1ccco1)C(=O)CNS(=O)(=O)c1ccc(F)cc1)NCCc1ccccc1 | inactive: -5.49% |  |

| Compound | activity change, negative = inhibition | Potency |
| --- | --- | --- |
| Cc1ccc(C2CC(=O)c3cnc(N4CC(C)CC(C)C4)nc3C2)cc1 (configuration not stated) | inactive: -10.8% |  |
| C=CCNC(=O)CNS(=O)(=O)c1ccc(F)cc1 | inactive: -0.503% |  |
| CCNc1nc(NC(C)C)nc(Oc2ccc(OCCOc3ccc(C)cc3)nn2)n1 | inconclusive: 22% [at 7.6 µM] |  |
| CN(Cc1ccco1)c1ncnc2ccc(-c3ccc4c(c3)OCO4)cc12 | inconclusive: -3.61% |  |
| Cc1cccc(CNc2ncncc2-c2ccccc2C(F)(F)F)c1 | inactive: 14.9% |  |
| CCCCNC(=O)c1c[nH]c2ccc(S(=O)(=O)Nc3ccc(OCC)cc3)cc2c1=O | inconclusive: -2.39% |  |
| CCCc1cc(Nc2cccc(OCC)c2)n2ncnc2n1 |  | inconclusive: 10 µM [rising, partial curve] |
| Cc1cc(N2CCN(C(c3ccccc3)c3ccc(Cl)cc3)CC2)n2ncnc2n1 (configuration not stated) | inconclusive: -4.15% [cytotoxic] |  |
| COc1cccc(-c2nc(CS(=O)CC(=O)NCCCOC(C)C)c(C)o2)c1 (configuration not stated) | inconclusive: -3.69% |  |
| c1ccc(OCCSc2nnnn2C2CCCCC2)cc1 | inactive: 9.12% |  |
| COCCOC(=O)C1=C(C)NC2=C(C(=O)CC(C)(C)C2)C1c1ccc(N(C)C)cc1 (configuration not stated) | inactive: 10.5% [at 7.6 µM] |  |
| Cc1cccc2cc(CN(CCCO)C(=O)Nc3ccc(Cl)cc3)c(=O)[nH]c12 | inconclusive: 4.7% |  |
| O=C1c2ccc(Oc3ccc4c(c3)C(=O)N(CCCCO)C4=O)cc2C(=O)N1CCCCO | inactive: 19.2% |  |
| COc1ccc(-c2nc(CSCC(=O)N3CCC(C(N)=O)CC3)c(C)o2)cc1OC | inconclusive: 22.3% |  |
| CCCNC(=O)c1cc(-c2ccc(OC)cc2)on1 | inconclusive: 16.2% |  |
| O=c1c2cc(-c3ccccc3)sc2ncn1/N=C/c1ccco1 | inconclusive: -18.2% [at 7.6 µM] |  |
| CC1(C)Cc2ccccc2C(=O)N1 | inactive: 5.47% |  |
| Fc1ccc(C2=Nn3c(Cc4ccccc4)nnc3SC2)cc1 | inactive: 16.1% |  |
| N#Cc1c(N)oc(-c2ccc3c(c2)OCO3)c1-c1ccc2c(c1)OCO2 | inconclusive: 29.5% |  |
| CCN(CC)CCCN(Cc1cc2cc3c(cc2[nH]c1=O)OCCO3)C(=O)Nc1ccccc1 |  | inconclusive: 15.8 µM [rising, single point] |
| Nc1ncnc2nn([C@H]3O[C@@H](CO)[C@@H](O)[C@H]3O)nc12 | inactive: 1.19% [at 7.6 µM] |  |
| CCN(CC)c1ccc(C(NC(C)=O)NC(C)=O)cc1 | inconclusive: -4.17% [at 7.6 µM] |  |

| Compound | activity change, negative = inhibition | Potency |
| --- | --- | --- |
| Oc1ccc(Cc2cc(Cl)cc(Cl)c2O)cc1Cl | inactive: 3.88% [at 7.6 µM] |  |
| CC(=O)N(c1cccc(C)c1)C1SC(=O)N(c2ccccc2)C1=O (configuration not stated) | inactive: -12.7% |  |
| O=C(NCCc1ccccc1)C1CCCN(S(=O)(=O)c2cccc3nsnc23)C1 (configuration not stated) |  | inconclusive: 10 µM [rising, partial curve] |
| CCCS(=O)(=O)N1CCC(C(=O)NCCc2ccccc2)CC1 |  | inconclusive: 1.58 µM [rising, partial curve] |
| FC(F)Oc1ccc(-c2csc(Cc3nnc4n3CCCCC4)n2)cc1 | inconclusive: 19.2% |  |
| C=CCn1c(=O)c2c(nc3n2CCS3)n(C)c1=O |  | inconclusive: 10 µM [rising, partial curve] |
| CCCc1ccc(C(=O)N2CCN(c3ccccc3OCC)CC2)cc1 | inactive: 7.17% |  |
| CN1CCN(c2ncc3ncc(=O)n(CCc4ccccc4)c3n2)CC1 | inconclusive: -2.36% |  |
| COc1ccc(CCNC(=O)C2CCN(Cc3nc(-c4ccc(Cl)cc4)oc3C)CC2)cc1OC | inconclusive: -3% |  |
| COc1cc(NC(=O)c2cc(-n3cnnc3)ccc2Cl)cc(OC)c1 |  | inconclusive: 10 µM [rising, single point] |
| CCc1nc(SCC(=O)NCc2ccco2)c2c3c(sc2n1)CCCC3 |  | inconclusive: 2.51 µM [rising, partial curve] |
| O=C(CSc1nc2c(cnn2-c2ccccc2)c(=O)[nH]1)c1ccc(Cl)cc1 | inconclusive: -7.65% |  |
| Cc1cc(NC(=O)C2CCCC2)nc2c1c(=O)oc1ccccc12 |  | inconclusive: 12.6 µM [rising, partial curve] |
| CC1CC(=O)C2=C(C1)Nc1ncnn1C2c1ccccc1 (configuration not stated) | inactive: -3.78% |  |
| CCc1ccc(NC(=O)c2ccc3c(c2)C(=O)N(Cc2ccco2)C3=O)cc1 | inconclusive: -2.23% |  |
| COC(=O)c1ccc(C(NC(=O)OCc2ccccc2)/C(=C/[C@@H](C)C(=O)N(C)C)c2cccnc2)cc1 (some centres not stated) | inactive: -12.7% |  |
| COc1ccccc1NC(=O)CSc1nnc(-c2ccccn2)n1Cc1ccco1 |  | active: 10 µM |
| Cc1cc(C)n(C(=O)c2cc3sccc3[nH]2)n1 | inactive: -6.15% |  |
| CCC/C=C(\CCC)C(NS(=O)(=O)c1ccccc1)c1ccc(C(F)(F)F)cc1 (configuration not stated) |  | active: 2 µM |
| O=C(CC1NC(=O)NC1=O)Nc1cccc2ccccc12 (configuration not stated) |  | inconclusive: 3.16 µM [rising, full curve, poor fit] |
| COc1ccc(-c2nc3cnc(N4CCOCC4)nc3n(Cc3cccc(OC)c3)c2=O)cc1 |  | inconclusive: 3.16 µM [rising, partial curve] |
